Reference: PubChem BioAssay (NCATS)
Inconclusive means that the source gave no clear call. Such entries were picked first, then a sample of the others. For some assays here: Potencies beside an inconclusive call are fits to weak or partial responses and may not hold up. The source made the active and inactive calls. Unless noted, calls follow the shape of the dose curve; as a rule, active = well fitted curve in the direction sought with a large enough effect in the repeat runs; inconclusive = weak or mixed curves; inactive = no such curve, though single readings can be large; an effect the other way counts as inactive or inconclusive.

Tests used:
[1] = biological target: Cytochrome P450 2D6 (Homo sapiens) (UniProt P10635); assay: Cytochrome P450 family 2 subfamily D member 6 (CYP2D6) small molecule antagonists: luciferase biochemical (cell-free) qHTS assay (AID 1645840); also: nearly all actives have a fitted effect of over 55% in size; also: potency is read from the fitted curve at half-maximal effect; as to activity change, negative = inhibition: % is scaled to controls: 0 for no effect and ±100 for the full control effect
How it was run: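 P450-Glo luminescent screen: recombinant CYP2D6 enzyme–proluciferin substrate mix preincubated with compound 10 min at room temperature, then NADPH regeneration added for 1 h at room temperature. Detection reagent added for 20 min; luciferin light read as relative luminescence units.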

[2] = biological target: Cytochrome P450 2C9 (Homo sapiens) (UniProt P11712); assay: Cytochrome P450 family 2 subfamily C member 9 (CYP2C9) small molecule antagonists: luciferase biochemical (cell-free) qHTS assay (AID 1645842); also: nearly all actives have a fitted effect of over 55% in size; also: potency is read from the fitted curve at half-maximal effect; as to activity change, negative = inhibition: % is scaled to controls: 0 for no effect and ±100 for the full control effect
How it was run: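 Luminescence, after 20 min with luciferin detection reagent, reflected CYP2C9 turnover during a 1 h NADPH-driven reaction at 37C. Enzyme-substrate mix contained 0.4% bovine serum albumin and was preincubated with compound 10 min at room temperature.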

[3] = Primary qHTS for inhibitors of nuclear receptor binding SET domain protein 2 (NSD2) in an isogenic RCH-ACV NSD2 p.E1099K mutant (9B) (AID 1645876; active = well fitted curve in the direction sought with a large enough effect; inconclusive = small, poorly fitted or top-dose-only effect, or another doubt; inactive = no such curve, though single readings can be large; an effect the other way counts as inactive or inconclusive; also: nearly all actives have a fitted effect of over 70% in size)
[4] = Primary fluorescence-based thiol-reactive (MSTI) qHTS assay for identification of artifact compounds. (AID 1845221; active = well fitted curve in the direction sought with a large enough effect; inconclusive = small, poorly fitted or top-dose-only effect, or another doubt; inactive = no such curve, though single readings can be large; an effect the other way counts as inactive or inconclusive;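 also: potency is read from the fitted curve at half-maximal effect; thiol-reactive compounds lower the probe fluorescence signal; nearly all actives have a fitted effect of over 65% in size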)
How it was run: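 Curve-fitted percent inhibition (4-parameter Hill) derived from fluorescence, Ex 525/Em 598 nm, scaled with Acetyl-MSTI and MSTI; 1 h incubation at room temperature.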

[5] = biological target: DNA polymerase eta (Homo sapiens) (UniProt Q9Y253); assay: qHTS for Inhibitors of Polymerase Eta: Confirmatory Assay for Cherry-picked Compounds (AID 720502; active = well fitted curve in the direction sought with a large enough effect; inconclusive = small, poorly fitted or top-dose-only effect, or another doubt; inactive = no such curve, though single readings can be large; an effect the other way counts as inactive or inconclusive; also: potency is read from the fitted curve at half-maximal effect); details: Pol eta primer extension, TAMRA/BHQ fluorescence, 10 min
How it was run: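 Readout: TAMRA dequenching, ex 525/em 598 nm, read at 0 and 10 min. Enzyme: 10 nM human Pol eta, preincubated with compound 15 min RT. Substrate: 50 nM final annealed primer/reporter/template duplex.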

[6] = biological target: Rap guanine nucleotide exchange factor 3 (Homo sapiens) (UniProt O95398); assay: Confirmatory qHTS for antagonist of cAMP-regulated guanine nucleotide exchange factor 3 (EPAC1) (AID 1645880; active = well fitted curve in the direction sought with a large enough effect; inconclusive = small, poorly fitted or top-dose-only effect, or another doubt; inactive = no such curve, though single readings can be large; an effect the other way counts as inactive or inconclusive; also: potency is read from the fitted curve at half-maximal effect; nearly all actives have a fitted effect of over 55% in size); details: EPAC1 Rap1B-BODIPY-GDP exchange, fluorescence; activity, negative = inhibition: at 115 µM (top of the series)
How it was run: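 Nucleotide exchange uses 100 nM EPAC1, 250 nM RAP1B-BODIPY-GDP and 50 uM GDP, with compounds in a concentration-titration series. After 5 min at room temperature, fluorescence (480 nm ex/540 nm em) is read every 5 min for 30 min. Data are normalized to control ATA and DMSO.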

[7] = biological target: Rap guanine nucleotide exchange factor 3 (Homo sapiens) (UniProt O95398); assay: Counterscreen qHTS for agonist of cAMP-regulated guanine nucleotide exchange factor 3 (EPAC1) (AID 1645889; active = well fitted curve in the direction sought with a large enough effect; inconclusive = small, poorly fitted or top-dose-only effect, or another doubt; inactive = no such curve, though single readings can be large; an effect the other way counts as inactive or inconclusive; also: potency is read from the fitted curve at half-maximal effect; nearly all actives have a fitted effect of over 40% in size); details: EPAC1 Rap1B-BODIPY-GDP exchange, fluorescence; activation: at 154 µM (top of the series) unless noted
How it was run: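 Measured: fluorescence of BODIPY-GDP bound to Rap1B, which falls as exchange proceeds. Conditions include 50 uM competing GDP, 5 and 30 min reads, and a later cAMP challenge for antagonist detection.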

[8] = biological target: Nuclear receptor subfamily 1 group I member 3 (Homo sapiens) (UniProt Q14994); assay: Primary qHTS for antagonist of constitutive androstane receptor (CAR) against the NCATS DSHEA and TCM libraries (AID 1794836; active = well fitted curve in the direction sought with a large enough effect; inconclusive = small, poorly fitted or top-dose-only effect, or another doubt; inactive = no such curve, though single readings can be large; an effect the other way counts as inactive or inconclusive; also: potency is read from the fitted curve at half-maximal effect)
How it was run: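 HepG2 cells stably carrying hCAR and a CYP2B6 luciferase reporter (2,500 cells/well) attached for 5 h, then received compounds with 48 uM CITCO for 24 h at 37C. ONE-Glo luminescence read antagonism; CellTiter-Fluor (405/540 nm) gave viability.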

[9] = biological target: Cytochrome P450 2C19 (Homo sapiens) (UniProt P33261); assay: qHTS for inhibitors of CYP2C19 against the NCATS DSHEA and TCM libraries (AID 1919974; active = well fitted curve in the direction sought with a large enough effect; inconclusive = small, poorly fitted or top-dose-only effect, or another doubt; inactive = no such curve, though single readings can be large; an effect the other way counts as inactive or inconclusive;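 also: luminescence from luciferin released by CYP2C19 oxidation of a pro-luciferin substrate; % is scaled to controls: 0 for no effect and ±100 for the full control effect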)
How it was run: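 Luminescent P450-Glo readout. Enzyme plus pro-luciferin substrate in manufacturer buffer (typically 100 mM KPO4); 15 min RT preincubation; 1x NADPH regenerating system, 30-45 min RT in the dark; detection reagent 30 min.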

[10] = biological target: Glutathione peroxidase 1 (Homo sapiens) (UniProt P07203); assay: Primary qHTS Assay for Inhibitors of Recombinant Selenoprotein Glutathione Peroxidase 1 (GPX1) (AID 1845191; active = well fitted curve in the direction sought with a large enough effect; inconclusive = small, poorly fitted or top-dose-only effect, or another doubt; inactive = no such curve, though single readings can be large; an effect the other way counts as inactive or inconclusive; also: potency is read from the fitted curve at half-maximal effect; nearly all actives have a fitted effect of over 65% in size)
How it was run: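 Recombinant GPX1 (10 nM final) was preincubated with compound for 30 min at room temperature, then reacted with 1 mM GSH, 0.5 mM CHP, 0.5 mM NADPH and 100 nM glutathione reductase; NADPH fluorescence (340/450 nm) was read at 0 and 15 min.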

[11] = biological target: Phospholipid hydroperoxide glutathione peroxidase GPX4 (Homo sapiens) (UniProt P36969); assay: Primary qHTS Assay for Inhibitors of Recombinant Selenoprotein Glutathione Peroxidase 4 (GPX4) (AID 1845192; active = well fitted curve in the direction sought with a large enough effect; inconclusive = small, poorly fitted or top-dose-only effect, or another doubt; inactive = no such curve, though single readings can be large; an effect the other way counts as inactive or inconclusive; also: potency is read from the fitted curve at half-maximal effect; nearly all actives have a fitted effect of over 65% in size)
How it was run: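 GR-coupled readout: 100 nM GR, 1 mM GSH, 0.5 mM NADPH; NADPH fluorescence (ex 340/em 450 nm) read at t=0 and after 15 min RT. GPX4 200 nM, preincubated 30 min with compound; substrate 0.5 mM CHP.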

[12] = biological target: Cytochrome P450 3A4 (Homo sapiens) (UniProt P08684); assay: Cytochrome P450 family 3 subfamily A member 4 (CYP3A4) small molecule antagonists: luciferase qHTS assay (AID 1645841); also: potency is read from the fitted curve at half-maximal effect; nearly all actives have a fitted effect of over 45% in size
How it was run: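 P450-Glo CYP3A4 enzyme with proluciferin substrate was preincubated with DMSO-dissolved compounds for 10 min at room temperature. NADPH regeneration solution started a 1 h reaction. Detection reagent stopped it, and luminescence was read after 20 min.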

[13] = AP1 Signaling Pathway (AID 357; active = well fitted curve in either direction with a large enough effect, not every such curve was filed as active; inconclusive = small, poorly fitted or top-dose-only effect, or another doubt;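 also: ME-180 reporter cells stimulated with EGF at its EC50 level; top concentration of the series differs between compounds; % is scaled to controls: 0 for no effect and ±100 for the full control effect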); details: ME-180 (cervical carcinoma) AP-1-bla reporter, EGF-induced, beta-lactamase ratio, 5 h; at 7.69 µM (top of the series) unless noted
How it was run: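 Cells are seeded overnight, exposed to compound titrations and an EC50 level of EGF for 5 hours at 37 °C, then loaded with CCF4 dye for 2.5 hours. Beta-lactamase activity under the AP-1 element is read as a blue/green ratio.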

CP269 = assay: qHTS profiling for inhibitors of Plasmodium falciparum proliferation (AID 504749; active = well fitted curve in the direction sought with a large enough effect; inconclusive = small, poorly fitted or top-dose-only effect, or another doubt; inactive = no such curve, though single readings can be large; an effect the other way counts as inactive or inconclusive;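 also: 0% = DMSO vehicle and full inhibition = artemisinin control; nearly all actives have a fitted effect of over 60% in size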); details: P. falciparum in erythrocytes, SYBR Green DNA, 72 h; series mostly up to 28.7 µM
How it was run: (§1)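 P. falciparum-infected erythrocytes (0.3% parasitemia, 2.5% hematocrit final) were exposed to compounds for 72 h at 37 C in 5% CO2, then lysed with SYBR Green buffer overnight at room temperature; parasite DNA fluorescence was normalized to artemisinin and DMSO controls.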

CP329 = assay: as above; details: P. falciparum in erythrocytes, SYBR Green DNA, 72 h; series mostly up to 28.7 µM
How it was run: as §1

GB4 = assay: as above; details: P. falciparum in erythrocytes, SYBR Green DNA, 72 h; series mostly up to 28.7 µM
How it was run: as §1

PC26 = assay: as above; details: P. falciparum in erythrocytes, SYBR Green DNA, 72 h; series mostly up to 28.7 µM
How it was run: as §1

SC27B = assay: as above; details: P. falciparum in erythrocytes, SYBR Green DNA, 72 h; series mostly up to 28.7 µM
How it was run: as §1
Tags tell the direction and shape of the fitted curve.

UniProt P11712, sequence (P11712 whole entry, looked up): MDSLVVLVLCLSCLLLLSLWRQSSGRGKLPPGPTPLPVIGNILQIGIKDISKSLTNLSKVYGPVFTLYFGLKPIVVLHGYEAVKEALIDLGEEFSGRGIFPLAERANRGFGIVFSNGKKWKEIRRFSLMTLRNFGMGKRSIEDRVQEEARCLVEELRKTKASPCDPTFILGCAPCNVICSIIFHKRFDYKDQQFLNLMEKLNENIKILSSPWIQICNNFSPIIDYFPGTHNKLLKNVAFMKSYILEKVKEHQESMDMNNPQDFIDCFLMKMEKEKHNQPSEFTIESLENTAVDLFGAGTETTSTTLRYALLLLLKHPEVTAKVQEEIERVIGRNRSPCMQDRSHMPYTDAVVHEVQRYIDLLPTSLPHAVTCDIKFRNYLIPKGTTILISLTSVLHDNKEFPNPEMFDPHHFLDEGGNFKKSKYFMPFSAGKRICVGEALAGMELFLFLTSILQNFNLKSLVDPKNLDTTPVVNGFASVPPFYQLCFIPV
UniProt P10635, sequence (P10635 whole entry, looked up): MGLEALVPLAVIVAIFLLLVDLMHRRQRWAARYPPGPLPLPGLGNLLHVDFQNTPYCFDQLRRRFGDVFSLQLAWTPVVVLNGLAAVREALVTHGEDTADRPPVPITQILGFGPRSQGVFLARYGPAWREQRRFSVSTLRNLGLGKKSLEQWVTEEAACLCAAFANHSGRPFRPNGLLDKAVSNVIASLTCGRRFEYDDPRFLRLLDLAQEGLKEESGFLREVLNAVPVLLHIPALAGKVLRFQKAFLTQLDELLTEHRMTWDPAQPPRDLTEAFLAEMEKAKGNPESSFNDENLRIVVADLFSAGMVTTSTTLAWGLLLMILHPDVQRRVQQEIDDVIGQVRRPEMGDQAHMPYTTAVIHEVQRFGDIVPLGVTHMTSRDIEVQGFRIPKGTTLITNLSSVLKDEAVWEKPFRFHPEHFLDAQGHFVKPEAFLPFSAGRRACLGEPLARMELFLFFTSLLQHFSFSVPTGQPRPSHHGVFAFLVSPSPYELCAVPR
UniProt P08684, sequence (P08684 whole entry, looked up): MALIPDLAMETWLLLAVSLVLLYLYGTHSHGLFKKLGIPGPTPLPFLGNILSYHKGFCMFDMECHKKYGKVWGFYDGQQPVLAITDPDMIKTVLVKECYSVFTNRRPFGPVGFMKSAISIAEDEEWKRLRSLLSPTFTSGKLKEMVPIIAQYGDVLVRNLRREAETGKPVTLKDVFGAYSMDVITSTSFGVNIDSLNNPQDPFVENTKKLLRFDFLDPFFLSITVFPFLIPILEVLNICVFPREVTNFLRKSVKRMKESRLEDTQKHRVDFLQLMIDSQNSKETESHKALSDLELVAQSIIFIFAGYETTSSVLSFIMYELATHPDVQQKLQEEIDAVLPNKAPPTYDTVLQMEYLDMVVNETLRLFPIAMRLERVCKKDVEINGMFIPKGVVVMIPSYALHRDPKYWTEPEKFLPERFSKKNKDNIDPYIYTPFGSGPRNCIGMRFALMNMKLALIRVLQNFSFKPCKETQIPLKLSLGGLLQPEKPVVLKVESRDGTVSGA
UniProt O95398, sequence (O95398 whole entry, looked up): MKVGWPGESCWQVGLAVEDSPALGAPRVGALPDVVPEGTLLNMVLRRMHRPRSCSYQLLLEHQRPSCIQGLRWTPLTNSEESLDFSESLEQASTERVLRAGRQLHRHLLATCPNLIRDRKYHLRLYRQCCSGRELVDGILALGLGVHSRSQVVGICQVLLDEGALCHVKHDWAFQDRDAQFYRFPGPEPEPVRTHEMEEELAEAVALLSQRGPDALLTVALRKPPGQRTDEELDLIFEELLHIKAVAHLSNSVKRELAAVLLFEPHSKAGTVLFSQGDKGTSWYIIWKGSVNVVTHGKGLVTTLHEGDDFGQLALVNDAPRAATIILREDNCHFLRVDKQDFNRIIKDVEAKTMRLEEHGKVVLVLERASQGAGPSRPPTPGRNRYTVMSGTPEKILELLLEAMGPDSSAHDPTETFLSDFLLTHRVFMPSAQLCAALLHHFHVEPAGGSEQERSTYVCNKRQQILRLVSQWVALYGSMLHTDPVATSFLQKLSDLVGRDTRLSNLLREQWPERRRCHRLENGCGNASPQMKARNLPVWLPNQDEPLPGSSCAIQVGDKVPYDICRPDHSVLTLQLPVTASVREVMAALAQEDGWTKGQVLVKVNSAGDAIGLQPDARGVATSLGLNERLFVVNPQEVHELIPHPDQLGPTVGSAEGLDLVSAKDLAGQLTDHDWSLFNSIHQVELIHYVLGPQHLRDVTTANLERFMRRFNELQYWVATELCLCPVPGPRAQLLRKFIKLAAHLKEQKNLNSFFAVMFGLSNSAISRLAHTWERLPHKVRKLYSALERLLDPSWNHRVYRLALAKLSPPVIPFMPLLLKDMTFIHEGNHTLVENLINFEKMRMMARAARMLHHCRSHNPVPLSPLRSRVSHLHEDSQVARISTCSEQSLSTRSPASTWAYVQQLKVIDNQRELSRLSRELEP
UniProt P33261, sequence (P33261 whole entry, looked up): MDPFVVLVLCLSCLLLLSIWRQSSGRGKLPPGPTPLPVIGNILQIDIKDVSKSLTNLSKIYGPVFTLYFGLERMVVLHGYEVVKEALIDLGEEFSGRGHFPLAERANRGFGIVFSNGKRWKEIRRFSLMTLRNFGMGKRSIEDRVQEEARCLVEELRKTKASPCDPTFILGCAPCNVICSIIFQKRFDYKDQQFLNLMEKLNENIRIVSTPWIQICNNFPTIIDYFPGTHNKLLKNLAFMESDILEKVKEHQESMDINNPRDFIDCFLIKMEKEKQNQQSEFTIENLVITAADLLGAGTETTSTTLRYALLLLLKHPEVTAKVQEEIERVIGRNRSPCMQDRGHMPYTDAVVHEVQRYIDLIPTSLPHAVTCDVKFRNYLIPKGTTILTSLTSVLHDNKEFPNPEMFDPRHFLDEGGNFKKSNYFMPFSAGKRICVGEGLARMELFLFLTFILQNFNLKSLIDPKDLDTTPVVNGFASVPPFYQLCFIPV
UniProt P36969, sequence (P36969 whole entry, looked up): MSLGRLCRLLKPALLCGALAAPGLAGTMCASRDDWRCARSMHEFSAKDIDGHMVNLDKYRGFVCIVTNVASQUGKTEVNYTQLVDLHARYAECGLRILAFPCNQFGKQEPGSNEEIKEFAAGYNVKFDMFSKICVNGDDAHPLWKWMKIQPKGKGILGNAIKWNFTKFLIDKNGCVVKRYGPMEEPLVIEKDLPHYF
UniProt P07203, sequence (P07203 whole entry, looked up): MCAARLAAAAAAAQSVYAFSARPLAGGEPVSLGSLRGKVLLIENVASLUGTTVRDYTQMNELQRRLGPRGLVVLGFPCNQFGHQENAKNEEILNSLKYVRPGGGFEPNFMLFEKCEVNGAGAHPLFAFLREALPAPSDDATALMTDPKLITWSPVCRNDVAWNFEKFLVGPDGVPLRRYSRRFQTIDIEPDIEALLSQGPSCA
UniProt Q9Y253, sequence (Q9Y253 whole entry, looked up): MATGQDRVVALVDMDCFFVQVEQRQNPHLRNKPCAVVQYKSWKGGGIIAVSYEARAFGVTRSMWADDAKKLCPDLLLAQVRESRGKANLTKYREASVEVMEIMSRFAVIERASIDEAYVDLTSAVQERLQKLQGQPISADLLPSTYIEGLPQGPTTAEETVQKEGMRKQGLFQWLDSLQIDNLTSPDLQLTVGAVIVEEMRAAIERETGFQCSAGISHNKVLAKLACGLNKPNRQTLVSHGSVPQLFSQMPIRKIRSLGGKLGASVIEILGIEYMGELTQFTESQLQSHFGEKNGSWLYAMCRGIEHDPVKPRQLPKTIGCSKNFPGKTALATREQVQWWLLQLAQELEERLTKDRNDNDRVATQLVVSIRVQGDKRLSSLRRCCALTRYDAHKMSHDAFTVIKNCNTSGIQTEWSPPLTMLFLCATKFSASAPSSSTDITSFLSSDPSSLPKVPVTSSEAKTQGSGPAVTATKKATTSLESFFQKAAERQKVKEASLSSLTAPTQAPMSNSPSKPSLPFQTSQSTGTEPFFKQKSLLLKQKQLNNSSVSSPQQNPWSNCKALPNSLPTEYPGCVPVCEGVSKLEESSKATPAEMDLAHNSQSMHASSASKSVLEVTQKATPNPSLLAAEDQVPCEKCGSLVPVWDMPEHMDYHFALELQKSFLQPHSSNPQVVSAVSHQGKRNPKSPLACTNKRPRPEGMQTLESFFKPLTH
UniProt Q14994, sequence (Q14994 whole entry, looked up): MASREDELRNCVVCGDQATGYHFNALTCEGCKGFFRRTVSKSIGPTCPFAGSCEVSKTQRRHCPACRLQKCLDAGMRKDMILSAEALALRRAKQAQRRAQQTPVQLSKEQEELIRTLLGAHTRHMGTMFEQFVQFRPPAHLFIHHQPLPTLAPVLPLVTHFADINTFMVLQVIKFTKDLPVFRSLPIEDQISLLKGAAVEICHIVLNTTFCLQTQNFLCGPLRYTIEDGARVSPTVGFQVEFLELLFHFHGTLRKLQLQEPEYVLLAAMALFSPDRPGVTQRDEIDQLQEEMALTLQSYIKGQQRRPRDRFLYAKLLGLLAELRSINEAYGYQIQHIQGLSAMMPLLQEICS

## CCOCc1cc(CN2CCN(c3cccc(C(F)(F)F)c3)CC2)c(O)c2ncccc12
[1]
  Potency: inconclusive: 23.9 µM [inhibitor, partial curve, poor fit]
[2]
  Potency: inconclusive: 23.9 µM [inhibitor, single point]

## CN1CCN(C2=Nc3ccccc3Nc3ccc(O)cc32)CC1
[1]
  Potency: inconclusive: 30.1 µM [inhibitor, partial curve, poor fit]
[3]
  Potency: inactive
[4]
  Potency: inconclusive: 11.9 µM [inhibitor, partial curve]

## Cc1ccc(C(Nc2ccccn2)c2ccc3cccnc3c2O)cc1 (configuration not stated)
[1]
  Potency: inconclusive: 37.9 µM [inhibitor, single point]
[2]
  Potency: inconclusive: 37.9 µM [inhibitor, single point]

## COc1ccc(C(=O)NC(c2ccc(Cl)cc2)c2cc(Cl)c3cccnc3c2O)cc1 (configuration not stated)
[1]
  Potency: inactive
[2]
  Potency: inconclusive: 23.9 µM [inhibitor, single point]

## COc1ccc(Cn2c(SCC(=O)N3CCN(c4ccc(F)cc4)CC3)nc3ccccc32)cc1
[1]
  Potency: inconclusive: 2.68 µM [inhibitor, full curve, poor fit]
[2]
  Potency: active: 1.69 µM

## Cc1cc(Cl)ccc1NC(=O)Cn1nc(C)c2c(C)n(-c3ccccc3)nc2c1=O
[5]
  Potency: inconclusive: 95.3 µM [inhibitor, single point]
[1]
  Potency: inactive
[2]
  Potency: inconclusive: 12 µM [inhibitor, partial curve]
[6]
  Potency: active: 84.9 µM
[7]
  Potency: inconclusive: 178 nM [activator, full curve, poor fit]

## C=C1CC[C@H](O)C/C1=C\C=C1/CCCC2(C)C1CCC2C(C)CCCC(C)C (some centres not stated)
[1]
  Potency: inconclusive: 21.3 µM [inhibitor, single point]
[2]
  Potency: active: 23.9 µM

## C=C(C)[C@H]1CC=C(C)CC1
[1]
  Potency: inactive
[2]
  Potency: inactive
[8]
  Potency: inconclusive: 3.98 µM [inhibitor, full curve]
[9]
  Potency: inactive

## CC1=C(C(=O)Nc2nnc(C(F)(F)F)s2)C(c2ccccc2Cl)N=C(Nc2nc3ccccc3o2)N1 (configuration not stated)
[1]
  Potency: inconclusive: 26.8 µM [inhibitor, single point]
[2]
  Potency: active: 10.7 µM

## Cn1nnnc1SCC1=C(C(=O)O)N2C(=O)[C@@H](NC(=O)[C@H](OC=O)c3ccccc3)[C@H]2SC1
[1]
  Potency: inconclusive: 23.9 µM [inhibitor, single point]
[2]
  Potency: inconclusive: 19 µM [inhibitor, partial curve]
[10]
  Potency: active: 9.04 µM
[11]
  Potency: inconclusive: 12.6 µM [inhibitor, partial curve]

## O=C(O)c1cc(O)c2c(O)c3c(O[C@@H]4O[C@H](CO)[C@@H](O)[C@H](O)[C@H]4O)cccc3c(-c3c4cc(C(=O)O)cc(O)c4c(O)c4c(O[C@@H]5O[C@H](CO)[C@@H](O)[C@H](O)[C@H]5O)cccc34)c2c1
[1]
  Potency: active: 15.1 µM
[2]
  Potency: inconclusive: 0.756 µM [inhibitor, single point]

## Cc1ccc(-n2nc3c(N4CCCC(C(=O)NCc5ccccc5C)C4)nnc(C)c3c2C)cc1 (configuration not stated)
[12]
  Potency: active: 1.69 µM

## CCOC(=O)c1ccc(NC(=O)CCn2c(=O)c3cccn3c3cccnc32)cc1
[2]
  Potency: active: 10.7 µM

## C[C@@H](C(=O)O)c1ccc(-c2ccccc2)c(F)c1
[13]
  activity change, negative = inhibition: inconclusive: 11.3% [inhibitor] [at 17.2 µM]
[1]
  Potency: inactive
CP269
  Potency: inactive
CP329
  Potency: inactive
GB4
  Potency: inactive
PC26
  Potency: inactive
SC27B
  Potency: inactive

## CCOC(=O)c1sc(NC(=O)c2c(-c3ccccc3)c(-c3ccccc3)nn(C)c2=O)nc1C
[12]
  Potency: inconclusive: 30.1 µM [falling, partial curve, poor fit]
[2]
  Potency: inconclusive: 21.3 µM [inhibitor, partial curve]

## CCOc1ccc(-c2nonc2NC(=O)c2oc3c(C)c(C)ccc3c2C)cc1OCC
[2]
  Potency: active: 0.379 µM

## COc1cccc2c1c(O)c(C(=O)N(C)c1ccc(C(F)(F)F)cc1)c(=O)n2C
[12]
  Potency: inconclusive: 26.8 µM [falling, single point]
[2]
  Potency: inconclusive: 3.79 µM [inhibitor, full curve]

## COc1ccc(-c2n[nH]c3c2cnc2cc(OC)c(OC)cc23)cc1
[12]
  Potency: inconclusive: 21.3 µM [falling, single point]
[2]
  Potency: inactive

## COc1ccc(-c2nc3n(n2)C(c2ccc(OC)c(OC)c2)C(C(=O)Nc2cccnc2)=C(C)N3)cc1 (configuration not stated)
[2]
  Potency: inconclusive: 9.52 µM [inhibitor, partial curve]
